pIC50: −log10 of the molar value. By IC50 is meant the dose at which the fit gives 50% viability; fits outside the tested doses are given as limits. The AUC spans the tested range (256-fold, ending at the top dose) of the same fit: 1 means no effect, lower means more sensitive. A top dose marked as inferred comes from the curve model; the source does not state it.
Key:
SB590885 = compound: CN(C)CCOc1ccc(-c2nc(-c3ccncc3)c(-c3ccc4c(c3)CC/C4=N\O)[nH]2)cc1 [SB590885]; experiment: Viability of human cancer cell lines after 72 h of drug (GDSC screen); details: top dose 5 µM; top dose inferred
Experimental: (§1)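 Human cancer cell lines in 384-well plates, medium with 10% serum, drug for 72 h over a 256-fold dose range (nine 2-fold or five 4-fold steps up to the top dose). Adherent lines were fixed and stained with the nucleic acid dye Syto60, suspension lines read with resazurin; signal relative to control wells, capped at 0 and 100%. One two-parameter sigmoid per drug and line, fitted in a mixed model over all curves with the slope shared within a line.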

PD-173074 = compound: CCN(CC)CCCCNc1ncc2cc(-c3cc(OC)cc(OC)c3)c(NC(=O)NC(C)(C)C)nc2n1 [PD-173074]; experiment: as above; details: top dose 2 µM; top dose inferred
Experimental: as §1

Row | Cell Line | AUC (SB590885) | pIC50 (SB590885) | AUC (PD-173074) | pIC50 (PD-173074)
1 | 22RV1 (prostate, adherent) | 0.96 | < 5.30 | 0.978 | < 5.70
2 | 42-MG-BA (glioma, adherent) | 0.967 | < 5.30 | 0.94 | < 5.70
3 | 201T (lung adenocarcinoma, adherent) | 0.98 | < 5.30 | 0.975 | < 5.70
4 | 451Lu (melanoma, adherent) | 0.32 | 7.00 | 0.948 | < 5.70
5 | 639-V (bladder, adherent) | 0.992 | < 5.30 | 0.916 | < 5.70
6 | 647-V (bladder, adherent) | 0.987 | < 5.30 | 0.98 | < 5.70
7 | 786-0 (kidney, adherent) | 0.971 | < 5.30 | 0.981 | < 5.70
8 | 5637 (bladder, adherent) | 0.978 | < 5.30 | 0.989 | < 5.70
9 | 8305C (thyroid, adherent) | 0.866 | < 5.30 | 0.965 | < 5.70
10 | 8505C (thyroid, adherent) | 0.979 | < 5.30 | 0.984 | < 5.70
11 | 23132-87 (stomach, adherent) | 0.986 | < 5.30 | 0.986 | < 5.70
12 | A172 (glioma, adherent) | – | – | 0.806 | 6.01
13 | A375 (melanoma, adherent) | – | – | 0.981 | < 5.70
14 | A427 (non-small cell lung carcinoma, adherent) | 0.862 | 5.36 | 0.896 | < 5.70
15 | A431 (skin, adherent) | 0.936 | < 5.30 | 0.988 | < 5.70
16 | A549 (lung adenocarcinoma, adherent) | – | – | 0.98 | < 5.70
17 | A673 (rhabdomyosarcoma, adherent) | 0.989 | < 5.30 | 0.99 | < 5.70
18 | A704 (kidney, adherent) | 0.989 | < 5.30 | 0.905 | < 5.70
19 | A2780 (ovary, semi-adherent) | 0.984 | < 5.30 | 0.939 | < 5.70
20 | AGS (stomach, adherent) | 0.932 | < 5.30 | 0.974 | < 5.70
21 | ASH-3 (thyroid, adherent) | 0.987 | < 5.30 | 0.988 | < 5.70
22 | AU565 (breast, adherent) | 0.966 | < 5.30 | 0.984 | < 5.70
23 | AsPC-1 (pancreas, adherent) | 0.806 | < 5.30 | 0.966 | < 5.70
24 | BALL-1 (B-cell leukaemia, suspension) | 0.997 | < 5.30 | 0.997 | < 5.70

Row | Cell Line | AUC (SB590885) | pIC50 (SB590885) | AUC (PD-173074) | pIC50 (PD-173074)
25 | BCPAP (thyroid, adherent) | 0.977 | < 5.30 | 0.986 | < 5.70
26 | BFTC-905 (bladder, adherent) | 0.929 | < 5.30 | 0.99 | < 5.70
27 | BHT-101 (thyroid, adherent) | 0.736 | 5.82 | 0.935 | < 5.70
28 | BHY (head and neck, adherent) | 0.984 | < 5.30 | 0.986 | < 5.70
29 | BICR10 (head and neck, adherent) | 0.985 | < 5.30 | 0.886 | < 5.70
30 | BICR22 (head and neck, adherent) | 0.974 | < 5.30 | 0.982 | < 5.70
31 | BICR78 (head and neck, adherent) | 0.983 | < 5.30 | 0.96 | < 5.70
32 | BPH-1 (prostate, adherent) | 0.982 | < 5.30 | 0.974 | < 5.70
33 | BT-20 (breast, adherent) | 0.984 | < 5.30 | 0.984 | < 5.70
34 | BT-483 (breast, adherent) | 0.978 | < 5.30 | 0.97 | < 5.70
35 | BT-549 (breast, adherent) | 0.979 | < 5.30 | 0.978 | < 5.70
36 | BxPC-3 (pancreas, adherent) | 0.984 | < 5.30 | 0.983 | < 5.70
37 | C3A (liver, adherent) | 0.988 | < 5.30 | 0.986 | < 5.70
38 | C32 (melanoma, adherent) | 0.401 | 6.79 | 0.987 | < 5.70
39 | C-4-I (cervix, adherent) | 0.986 | < 5.30 | 0.986 | < 5.70
40 | C-33-A (cervix, adherent) | 0.986 | < 5.30 | 0.986 | < 5.70
41 | CADO-ES1 (Ewing sarcoma, suspension) | 0.969 | < 5.30 | 0.961 | < 5.70
42 | CAL-12T (non-small cell lung carcinoma, adherent) | 0.96 | < 5.30 | 0.971 | < 5.70
43 | CAL-27 (head and neck, adherent) | 0.976 | < 5.30 | 0.981 | < 5.70
44 | CAL-29 (bladder, adherent) | 0.984 | < 5.30 | 0.982 | < 5.70
45 | CAL-33 (head and neck, adherent) | 0.975 | < 5.30 | 0.919 | < 5.70
46 | CAL-39 (cervix, adherent) | 0.986 | < 5.30 | 0.976 | < 5.70
47 | CAL-51 (breast, adherent) | 0.991 | < 5.30 | 0.987 | < 5.70
48 | CAL-54 (kidney, adherent) | 0.984 | < 5.30 | 0.973 | < 5.70

Row | Cell Line | AUC (SB590885) | pIC50 (SB590885) | AUC (PD-173074) | pIC50 (PD-173074)
49 | CAL-62 (thyroid, adherent) | 0.988 | < 5.30 | 0.988 | < 5.70
50 | CAL-72 (osteosarcoma, adherent) | 0.973 | < 5.30 | 0.818 | 5.86
51 | CAL-78 (chondrosarcoma, adherent) | 0.986 | < 5.30 | 0.823 | 5.85
52 | CAL-85-1 (breast, adherent) | 0.965 | < 5.30 | 0.98 | < 5.70
53 | CAL-120 (breast, adherent) | 0.934 | < 5.30 | 0.91 | < 5.70
54 | CAPAN-1 (pancreas, adherent) | 0.987 | < 5.30 | 0.987 | < 5.70
55 | CCF-STTG1 (glioma, adherent) | 0.988 | < 5.30 | 0.985 | < 5.70
56 | CCK-81 (large intestine, adherent) | 0.917 | < 5.30 | 0.976 | < 5.70
57 | CFPAC-1 (pancreas, adherent) | 0.957 | < 5.30 | – | –
58 | CHL-1 (melanoma, adherent) | 0.97 | < 5.30 | 0.879 | 5.74
59 | CHP-134 (neuroblastoma, suspension) | 0.921 | < 5.30 | 0.877 | < 5.70
60 | CHP-212 (neuroblastoma, adherent) | 0.986 | < 5.30 | 0.964 | < 5.70
61 | CHSA0011 (chondrosarcoma, adherent) | 0.98 | < 5.30 | 0.859 | < 5.70
62 | CHSA0108 (chondrosarcoma, adherent) | 0.973 | < 5.30 | 0.877 | < 5.70
63 | CHSA8926 (chondrosarcoma, adherent) | 0.961 | < 5.30 | 0.968 | < 5.70
64 | CL-34 (large intestine, adherent) | 0.901 | < 5.30 | 0.987 | < 5.70
65 | CL-40 (large intestine, adherent) | 0.97 | < 5.30 | 0.968 | < 5.70
66 | CML-T1 (chronic myeloid leukaemia, suspension) | 0.95 | < 5.30 | 0.952 | < 5.70
67 | COLO-205 (large intestine, suspension) | – | – | 0.914 | < 5.70
68 | COLO-678 (large intestine, semi-adherent) | 0.985 | < 5.30 | 0.979 | < 5.70
69 | COLO-679 (melanoma, adherent) | 0.484 | 6.55 | 0.978 | < 5.70
70 | COLO-680N (oesophagus, adherent) | 0.983 | < 5.30 | 0.986 | < 5.70
71 | COLO-783 (melanoma, adherent) | 0.801 | 5.63 | 0.991 | < 5.70
72 | Ca-Ski (cervix, adherent) | – | – | 0.973 | < 5.70

Row | Cell Line | AUC (SB590885) | pIC50 (SB590885) | AUC (PD-173074) | pIC50 (PD-173074)
73 | EMC-BAC-2 (lung adenocarcinoma, adherent) | – | – | 0.967 | < 5.70
74 | FU97 (stomach, adherent) | 0.974 | < 5.30 | – | –
75 | HCC-827 (lung adenocarcinoma, adherent) | 0.969 | < 5.30 | – | –
76 | HCT-116 (large intestine, adherent) | – | – | 0.977 | < 5.70
77 | HT-29 (large intestine, adherent) | – | – | 0.988 | < 5.70
78 | HT-1080 (fibrosarcoma, adherent) | – | – | 0.989 | < 5.70
79 | IGR-37 (melanoma, adherent) | – | – | 0.979 | < 5.70
80 | KYM-1 (rhabdomyosarcoma, adherent) | – | – | 0.948 | < 5.70
81 | MFE-319 (endometrium, adherent) | – | – | 0.983 | < 5.70
82 | MKN1 (stomach, adherent) | – | – | 0.979 | < 5.70
83 | NCI-H358 (lung adenocarcinoma, adherent) | – | – | 0.965 | < 5.70
84 | NCI-H520 (lung squamous cell carcinoma, adherent) | 0.987 | < 5.30 | – | –
85 | NCI-H2110 (non-small cell lung carcinoma, adherent) | 0.89 | < 5.30 | – | –
86 | RERF-GC-1B (stomach, adherent) | – | – | 0.856 | 5.72
87 | SK-MEL-28 (melanoma, adherent) | – | – | 0.954 | < 5.70
88 | SK-MEL-30 (melanoma, adherent) | – | – | 0.951 | < 5.70
89 | SNG-M (endometrium, adherent) | – | – | 0.983 | < 5.70
90 | SU8686 (pancreas, adherent) | – | – | 0.883 | < 5.70
91 | SW13 (adrenal gland, adherent) | – | – | 0.987 | < 5.70
92 | TE-4 (oesophagus, adherent) | 0.981 | < 5.30 | – | –
93 | UACC-893 (breast, adherent) | – | – | 0.968 | < 5.70

From the supplement of paper PMC4967469
